Some of the results follow. No stated cut-off is given here; in the data, active = 25% or less and inactive = the rest. Single values are uncertain, as repeats are few or missing.
Experiments:
[1] = tested on: Salmonella enterica serovar Typhimurium SL1344; assay: bacterial growth OD600 after 18 h in MHB with 0.5 µg/mL polymyxin B; higher = more bacterial growth (less inhibition); conditions: 25 µM; polymyxin B 0.5 µg/mL; system: broth
Protocol: (§1)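 Secondary screen of the 553 primary hits at 25 µM. (i) S. Typhimurium SL1344 grown in Mueller-Hinton broth with 0.5 µg/mL polymyxin B, OD600 read after 18 h. (ii) SAFIRE assay: RAW 264.7 macrophages infected with S. Typhimurium sifB::gfp (MOI 30); compound added 2 h post-infection; cells fixed at 18 h; GFP-positive pixel fraction per macrophage imaged by confocal microscopy and expressed as % of DMSO control.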

[2] = tested on: Salmonella enterica serovar Typhimurium SL1344; assay: intramacrophage bacterial GFP load (SAFIRE), percent of DMSO control (% of DMSO); higher = more intracellular bacteria (less inhibition); conditions: 25 µM; system: infected RAW 264.7 macrophages
Protocol: as §1
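Wherever bacterial growth OD600 after 18 h in MHB with 0.5 µg/mL polymyxin B is given: polymyxin B level opens the outer membrane while sparing the inner membrane, with novobiocin wells as reference growth inhibitor.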
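Wherever intramacrophage bacterial GFP load (SAFIRE), percent of DMSO control is given: compounds tested were the hits of an earlier 50 µM broth growth screen of a drug-like diversity library run with polymyxin B.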

Row | SMILES | bacterial growth OD600 [1] | intramacrophage bacterial GFP load [2]
1 | Cc1c(C(=O)N2CCCCC2)sc2ncnc(N3CCCCCCC3)c12 | 0.006 | inactive: 51
2 | Cc1nonc1C1CCCN1c1ccc(-c2nc(C3CC3)no2)cn1 (stereo unspecified) | 0.034 | inactive: 86.6
3 | CN(C)Cc1ccc(C(=O)N2CCCC(CCc3cccc(F)c3)C2)o1 (stereo unspecified) | 0.003 | active: 9.17
4 | OCC1(Cc2ccccc2F)CCCN(Cc2cnc(-c3ccc(Cl)cc3)nc2)C1 (stereo unspecified) | 0.01 | inactive: 36
5 | Cc1ccc(CN2CCCC2C(=O)Nc2ccccc2Oc2cccnc2)cc1 (stereo unspecified) | 0.004 | inactive: 40.8
6 | CN(Cc1ccccc1)C1(C(=O)NCCn2cccn2)Cc2ccccc2C1 | 0.003 | inactive: 42.3
7 | O=C(c1ccccc1)C1CCCN(C(=O)CC2(c3cccc(F)c3)CC(=O)N(C3CCCC3)C2=O)C1 (stereo unspecified) | 0.005 | inactive: 52.1
8 | Cc1ccc(OCCN(C)C(=O)C2CC23CCN(Cc2nc4ccccc4s2)CC3)cc1 (stereo unspecified) | -0.002 | inactive: 33.3
9 | CN1CCCCCC1C(=O)N(Cc1ccncc1)Cc1cccc(OCCc2ccc(F)cc2)c1 (stereo unspecified) | 0.003 | active: 0.961
10 | COc1ccc2cc(C(C)NC3CCN(c4ccc(C(=O)NCc5cccnc5)cc4)CC3)ccc2c1 (stereo unspecified) | 0.006 | active: 0.717
11 | Cc1nc(N2CCC(C(=O)N3CCNC(=O)C3c3cccc(F)c3)CC2)nc2ccc(C(C)C)cc12 (stereo unspecified) | 0.004 | inactive: 92.1
12 | Cc1nc(N2CCC(C(=O)N3CC[C@@H]4CCCC[C@H]4C3)CC2)nc2cc(S(C)(=O)=O)ccc12 | -0.004 | inactive: 57
13 | O=C(CC1(c2ccccc2)CC(=O)N(Cc2ccncc2)C1=O)N(Cc1ccccc1)CC1CC1 (stereo unspecified) | 0.531 | inactive: 95.2
14 | CN(Cc1ccc2nccnc2c1)C(=O)CC1(c2ccc(-c3ccccc3)cc2)CC(=O)N(C)C1=O (stereo unspecified) | 0.003 | inactive: 111
15 | COC(c1ccc2c(c1)CN(C(=O)c1scc3c1OCCO3)CCO2)C1CCCCC1 (stereo unspecified) | -0.002 | inactive: 75.1
16 | COCCN1C(=O)CC(CC(=O)N2CCCC(c3cccc(C)c3)C2)(c2ccccc2OC)C1=O (stereo unspecified) | -0.006 | inactive: 86.8
17 | O=C(CSc1ccccc1)N1CCc2onc(-c3ccc(Cl)cc3)c2C1 | -0.023 | inactive: 138
18 | CN(C)c1ccccc1C(=O)N1CCCC(CO)(Cc2cccc(Cl)c2)C1 (stereo unspecified) | -0.011 | inactive: 72.2
